Source: the supplement of paper PMC12462457
Structures can show the parent of a compound that is named as a salt. ± gives the standard deviation of the averaged measurements. This is one part of the list.

Tested on: OVCAR8
Experiment: cell count relative to DMSO vehicle (fold change); OVCAR8 is a high-grade serous ovarian cancer line and CX-5461 an RNA polymerase I inhibitor; higher = more surviving senescent cells (less killing)
Settings: senescence inducer: CX-5461 3 µM 48 h, then 6 d recovery (CX senescent), exposure time 24 h

Row | Compound | cell count (compound dose 1 µM) | cell count (compound dose 5 µM)
1 | CC(C(=O)Nc1cccc(/N=C/c2c(O)ccc3ccccc23)c1)c1ccccc1 (stereo not given) [Salermide] | 1.08 ± 0.15 | 1.03 ± 0.15
2 | COc1cccc(-c2cc(F)ccc2[C@H]2Cc3nc(N)nc(C)c3C(=O)N2)n1 | 1.09 ± 0.17 | 1.03 ± 0.19
3 | COc1nc(N)nc2c1ncn2[C@@H]1O[C@H](CO)[C@@H](O)[C@@H]1O [Nelarabine] | 1.22 ± 0.23 | 1.1 ± 0.03
4 | O=C(Nc1cccc(Nc2ncc(Br)c(NCCc3cnc[nH]3)n2)c1)N1CCCC1 | 1.08 ± 0.023 | 1.24 ± 0.0064
5 | C[C@H](CCC(=O)NCCS(=O)(=O)O)[C@H]1CC[C@H]2[C@@H]3[C@@H](O)C[C@@H]4C[C@H](O)CC[C@]4(C)[C@H]3CC[C@]12C [Tauroursodeoxycholate (Sodium)] | 1.11 ± 0.19 | 1.1 ± 0.073
6 | Cc1nc(-c2nc(-c3ccc(OC(F)(F)F)cc3)no2)nn1Cc1cccc(N2CCC(S(C)(=O)=O)CC2)c1 | 1.14 ± 0.17 | 1.12 ± 0.069
7 | O=C1CCC(N2C(=O)c3ccccc3C2=O)C(=O)N1 (stereo not given) | 1.19 ± 0.19 | 1.07 ± 0.011
8 | Clc1ccc(C(Cn2ccnc2)OCc2csc3c(Cl)cccc23)c(Cl)c1 (stereo not given) [Sertaconazole (nitrate)] | 1.13 ± 0.11 | 1.03 ± 0.11
9 | C[C@H]1[C@H](OC(=O)CCC(=O)O)O[C@@H]2O[C@@]3(C)CC[C@H]4[C@H](C)CC[C@@H]1[C@@]24OO3 [Artesunate] | 1.07 ± 0.18 | 1.17 ± 0.15
10 | COC(=O)[C@H](CCSC)NC(=O)c1ccc(NC[C@@H](N)CS)cc1-c1ccccc1 [FTI-277 (hydrochloride)] | 1.08 ± 0.018 | 1.16 ± 0.14
11 | O=C1CCC(N2Cc3c(C#CCCCNC(=O)c4ccc(NC(=O)[C@@H]5NC6(CCCCC6)[C@@]6(C(=O)Nc7cc(Cl)ccc76)[C@H]5c5cccc(Cl)c5F)cc4)cccc3C2=O)C(=O)N1 (stereo not given in full) | 1.02 ± 0.033 | 1.03 ± 0.092
12 | CC[C@@H]1/C=C(\C)C[C@H](C)C[C@H](OC)[C@H]2O[C@@](O)(C(=O)C(=O)N3CCCC[C@H]3C(=O)O[C@H](/C(C)=C/[C@@H]3CC[C@@H](O)[C@H](OC)C3)[C@H](C)[C@@H](O)CC1=O)[C@H](C)C[C@@H]2OC [Ascomycin] | 0.88 ± 0.11 | 1.11 ± 0.18
13 | COc1ccc(N2C(=O)/C(=C\c3ccc([N+](=O)[O-])s3)SC2=S)cc1 | 1.03 ± 0.17 | 1.05 ± 0.16
14 | Cc1cc(Nc2cc(N3CCN(C)CC3)nc(/C=C/c3ccccc3)n2)n[nH]1 | 1.07 ± 0.052 | 0.542 ± 0.069
15 | Cc1cc(Nc2cc(N3CCN(C)CC3)nc(/C=C/c3ccccc3)n2)n[nH]1 [ENMD-2076 L-(+)-Tartaric acid] | 0.923 ± 0.12 | 0.812 ± 0.26
16 | C/C=C(/C)C(=O)O[C@H]1[C@H](OC(C)=O)[C@@]2(CO)C(CC1(C)C)C1=CCC3[C@@]4(C)CCC(O[C@@H]5O[C@H](C(=O)O)[C@@H](O[C@@H]6O[C@H](CO)[C@@H](O)[C@H](O)[C@H]6O)[C@H](O)[C@H]5O[C@@H]5O[C@H](CO)[C@@H](O)[C@H](O)[C@H]5O)[C@](C)(CO)C4CC[C@@]3(C)[C@]1(C)C[C@H]2O.C/C=C(\C)C(=O)O[C@H]1[C@H](OC(C)=O)[C@@]2(CO)C(CC1(C)C)C1=CCC3[C@@]4(C)CCC(O[C@@H]5O[C@H](C(=O)O)[C@@H](O[C@@H]6O[C@H](CO)[C@@H](O)[C@H](O)[C@H]6O)[C@H](O)[C@H]5O[C@@H]5O[C@H](CO)[C@@H](O)[C@H](O)[C@H]5O)[C@](C)(CO)C4CC[C@@]3(C)[C@]1(C)C[C@H]2O (stereo not given in full) [Escin] | 1.14 ± 0.19 | 0.951 ± 0.28
17 | COc1ccc(C2CC(c3ccccc3)=NN2c2ccc(S(N)(=O)=O)cc2)cc1 (stereo not given) | 1.02 ± 0.19 | 1.06 ± 0.061
18 | CN(C)c1cccc(-c2c3c(=O)n(-c4ccccc4Cl)[nH]c3cc(=O)n2C)c1 [Setanaxib] | 1.11 ± 0.083 | 1.06 ± 0.16
19 | CCCCOc1nc(N)c2c(n1)N(Cc1cccc(CN3CCCC3)c1)CC(=O)N2 [Vesatolimod] | 1.01 ± 0.057 | 0.992 ± 0.051
20 | CCC(Sc1nnc2c(n1)[nH]c1ccccc12)C(=O)N1c2ccccc2Sc2ccccc21 (stereo not given) [Inauhzin] | 1.1 ± 0.17 | 1.064 ± 0.0014

Row | Compound | cell count (compound dose 1 µM) | cell count (compound dose 5 µM)
21 | CCCCCCCCCCCC1=C(O)C(=O)C=C(O)C1=O [Embelin] | 1.11 ± 0.21 | 0.97 ± 0.24
22 | CC(=O)N[C@H](Cc1ccc(O)cc1)C(=O)N[C@H](CCCN=C(N)N)C(=O)N[C@H](Cc1ccccc1)C(N)=O | 1.14 ± 0.15 | 1.02 ± 0.17
23 | CCCCCOC(=O)Nc1nc(=O)n([C@@H]2O[C@H](C)[C@@H](O)[C@H]2O)cc1F [Capecitabine] | 1.23 ± 0.22 | 1.01 ± 0.11
24 | CN(C)CC[C@H](CSc1ccccc1)Nc1ccc(S(=O)(=O)NC(=O)c2ccc(N3CCC(C)(C)CC3)cc2)cc1[N+](=O)[O-] | 1.09 ± 0.11 | 1.14 ± 0.023
25 | NC(=O)c1ccc(-c2cc(-c3ccc([N+](=O)[O-])cc3)nc(-c3ccco3)c2)cc1 | 1.08 ± 0.19 | 1.05 ± 0.11
26 | Nc1c(C(=O)NCc2ccc(C(=O)NCCCC3CCCCC3)cc2)cnn1-c1ccccc1 | 1.37 ± 0.29 | 1.29 ± 0.27
27 | CC(O)(P(=O)(O)O)P(=O)(O)O [Etidronic acid] | 1.04 ± 0.068 | 1.04 ± 0.057
28 | CC(C)Cc1ccc(C(C)C(=O)O)cc1 (stereo not given) | 1.04 ± 0.016 | 1.06 ± 0.11
29 | CN(C(=O)c1c(O)c2ccccc2n(C)c1=O)c1ccccc1 [Roquinimex] | 1.1 ± 0.053 | 1.05 ± 0.076
30 | Cc1ccc(S(=O)(=O)Nc2cc(-c3ccc(C#N)s3)ccc2C)cc1 | 1.18 ± 0.067 | 1.08 ± 0.067
31 | Cc1ncc(COP(=O)([O-])[O-])c(CN(CCN(CC(=O)O)Cc2c(COP(=O)([O-])O)cnc(C)c2O)CC(=O)O)c1O.[Mn].[Na+].[Na+].[Na+] | 1.01 ± 0.13 | 0.968 ± 0.076
32 | COc1ccc(C2=N[C@H](c3ccc(Cl)cc3)[C@H](c3ccc(Cl)cc3)N2C(=O)N2CCNC(=O)C2)c(OC(C)C)c1 [Nutlin-3b] | 1.07 ± 0.21 | 1.02 ± 0.098
33 | O=c1c(O)c(-c2ccc(O)c(O)c2)oc2cc(O)cc(O)c12 [Quercetin] | 1.0675 ± 0.00071 | 1.11 ± 0.31
34 | CC/C(=C(\c1ccccc1)c1ccc(OCCN(C)C)cc1)c1ccccc1 [Tamoxifen (Citrate)] | 1.1 ± 0.11 | 1.1 ± 0.14
35 | CCc1oc2ccccc2c1C(=O)c1cc(Br)c(O)c(Br)c1 | 1.13 ± 0.052 | 1.12 ± 0.013
36 | Cn1cc(-c2ccc(S(=O)(=O)n3ccc(/C=C/C(=O)Nc4ccccc4N)c3)cc2)cn1 | 1.37 ± 0.13 | 1.23 ± 0.14
37 | CCN(CCCOc1ccc2c(Nc3cc(CC(=O)Nc4cccc(F)c4)[nH]n3)ncnc2c1)CCOP(=O)(O)O [Barasertib] | 1.23 ± 0.14 | 1.2 ± 0.16
38 | CCN(CCCOc1ccc2c(Nc3cc(CC(=O)Nc4cccc(F)c4)[nH]n3)ncnc2c1)CCOP(=O)(O)O [Barasertib (AZD1152-HQPA)] | 1.2 ± 0.04 | 1.21 ± 0.018
39 | CC(C)c1cccc(C(C)C)c1NC(=O)NCC1(c2ccc(N(C)C)cc2)CCCC1 [Nevanimibe hydrochloride] | 0.994 ± 0.034 | 0.851 ± 0.016
40 | CN(C)CCCCC(=O)Nc1ccc(NC(=S)NC(=O)c2ccc(C(C)(C)C)cc2)cc1 [Tenovin-6] | 1.02 ± 0.11 | 0.935 ± 0.016

Row | Compound | cell count (compound dose 1 µM) | cell count (compound dose 5 µM)
41 | COc1cc2ncnc(Nc3ccc(F)c(Cl)c3)c2cc1OCCCN1CCOCC1 [Gefitinib (ZD1839)] | 1.06 ± 0.082 | 1.12 ± 0.12
42 | CN[C@@H](C)C(=O)N[C@H](C(=O)N1CCC[C@H]1C(=O)Nc1sc(-c2ncco2)nc1-c1ccccc1)C1CCCCC1 | 0.649 ± 0.1 | 0.676 ± 0.074
43 | COC(=O)[C@]12CCC(C)(C)C[C@H]1[C@H]1C(=O)C=C3[C@@]4(C)C=C(C#N)C(=O)C(C)(C)[C@@H]4CC[C@@]3(C)[C@]1(C)CC2 [Bardoxolone methyl] | 0.899 ± 0.074 | 0.007 ± 0.0014
44 | Cc1cc(Nc2nc(N[C@@H](C)c3ccc(F)cc3)c(C#N)cc2F)n[nH]1 | 1.21 ± 0.19 | 0.756 ± 0.12
45 | N[C@@H](CCC(=O)Nc1ccc([N+](=O)[O-])cc1)C(=O)O [GPNA (hydrochloride)] | 0.899 ± 0.028 | 0.775 ± 0.22
46 | CC(C)c1ccc2c(c1)c(SC(C)(C)C)c(CC(C)(C)C(=O)O)n2Cc1ccc(Cl)cc1 | 1.09 ± 0.13 | 1.11 ± 0.11
47 | CCN1CCN(Cc2ccc(-c3cc4c(N[C@H](C)c5ccccc5)ncnc4[nH]3)cc2)CC1 | 0.833 ± 0.0099 | 0.366 ± 0.061
48 | Cc1nc(Nc2ncc(C(=O)Nc3c(C)cccc3Cl)s2)cc(N2CCN(CCO)CC2)n1 [Dasatinib] | 0.0155 ± 0.0064 | 0.0205 ± 0.0021
49 | COc1cc(N2CCC(N3CCN(C)CC3)CC2)ccc1Nc1ncnc(Nc2ccccc2S(=O)(=O)C(C)C)n1 | 1.17 ± 0.12 | 1.07 ± 0.21
50 | CN1C(=O)[C@@H](NC(=O)c2n[nH]c(Cc3ccccc3)n2)COc2ccccc21 | 1.1 ± 0.076 | 1.15 ± 0.057
51 | Cc1cc(=O)oc2c(O)c(O)ccc12 | 1.04 ± 0.058 | 1.1 ± 0.079
52 | CC(C)(C)c1ccc(C(O)CCCN2CCC(C(O)(c3ccccc3)c3ccccc3)CC2)cc1 (stereo not given) | 1.11 ± 0.16 | 0.844 ± 0.084
53 | CC(C)(c1ccc(OCC(O)CO)cc1)c1ccc(OCC(O)CCl)cc1 (stereo not given) | 1.04 ± 0.29 | 1.05 ± 0.29
54 | CCOC(=O)c1[nH]c2cc(Cl)ccc2c1C(C(=O)NC(C)(C)C)N(C=O)Cc1ccc(Cl)cc1 (stereo not given) | 0.994 ± 0.12 | 1.11 ± 0.15
55 | CNCCN(C)Cc1c[nH]nc1-c1ccc(O[C@H]2C[C@H](OCCC3CCOCC3)C2)cc1 | 1.19 ± 0.4 | 1.12 ± 0.34
56 | CN(C)CC#Cc1ccc(OCCCc2sc(N3CCc4cccc(C(=O)Nc5nc6ccccc6s5)c4C3)nc2C(=O)O)c(F)c1 | 1.05 ± 0.2 | 1.07 ± 0.23
57 | C=C(C)[C@@H](CC=C(C)C)C[C@@]12C[C@@H](CC=C(C)C)C(C)(C)[C@@](CC=C(C)C)(C(=O)C(C(=O)c3ccc(O)c(O)c3)=C1O)C2=O [Garcinol] | 1.14 ± 0.033 | 1.02 ± 0.14
58 | COc1ccc(C[C@@H]2c3cc(Oc4cc(C[C@@H]5c6cc(OC)c(OC)cc6CCN5C)ccc4O)c(OC)cc3CCN2C)cc1 [Neferine] | 1.26 ± 0.37 | 1.24 ± 0.42
59 | CC1(C)C(=O)N([C@H]2CCc3c(O)cccc32)c2nc(Nc3cccc(CN4CCCC4)c3)ncc21 | 1.1 ± 0.072 | 0.335 ± 0.023
60 | Cc1[nH]c2ccccc2c1CCNCc1ccc(/C=C/C(=O)NO)cc1 [Panobinostat (LBH589)] | 0.626 ± 0.04 | 0.469 ± 0.08
